In article PMC4336329 (PLoS ONE, 2015):
The whole screen tested about 310,000 compounds, of which about 2,200 (0.71%) showed an effect of 50% or more. The effect is printed as a negative number. The list shows a part of the results.

target: human ether-à-go-go-related gene (hERG) potassium channel (human, UniProt Q12809); assay: primary screen, population patch clamp on CHO cells stably expressing hERG
Sequence (Q12809 whole entry, looked up): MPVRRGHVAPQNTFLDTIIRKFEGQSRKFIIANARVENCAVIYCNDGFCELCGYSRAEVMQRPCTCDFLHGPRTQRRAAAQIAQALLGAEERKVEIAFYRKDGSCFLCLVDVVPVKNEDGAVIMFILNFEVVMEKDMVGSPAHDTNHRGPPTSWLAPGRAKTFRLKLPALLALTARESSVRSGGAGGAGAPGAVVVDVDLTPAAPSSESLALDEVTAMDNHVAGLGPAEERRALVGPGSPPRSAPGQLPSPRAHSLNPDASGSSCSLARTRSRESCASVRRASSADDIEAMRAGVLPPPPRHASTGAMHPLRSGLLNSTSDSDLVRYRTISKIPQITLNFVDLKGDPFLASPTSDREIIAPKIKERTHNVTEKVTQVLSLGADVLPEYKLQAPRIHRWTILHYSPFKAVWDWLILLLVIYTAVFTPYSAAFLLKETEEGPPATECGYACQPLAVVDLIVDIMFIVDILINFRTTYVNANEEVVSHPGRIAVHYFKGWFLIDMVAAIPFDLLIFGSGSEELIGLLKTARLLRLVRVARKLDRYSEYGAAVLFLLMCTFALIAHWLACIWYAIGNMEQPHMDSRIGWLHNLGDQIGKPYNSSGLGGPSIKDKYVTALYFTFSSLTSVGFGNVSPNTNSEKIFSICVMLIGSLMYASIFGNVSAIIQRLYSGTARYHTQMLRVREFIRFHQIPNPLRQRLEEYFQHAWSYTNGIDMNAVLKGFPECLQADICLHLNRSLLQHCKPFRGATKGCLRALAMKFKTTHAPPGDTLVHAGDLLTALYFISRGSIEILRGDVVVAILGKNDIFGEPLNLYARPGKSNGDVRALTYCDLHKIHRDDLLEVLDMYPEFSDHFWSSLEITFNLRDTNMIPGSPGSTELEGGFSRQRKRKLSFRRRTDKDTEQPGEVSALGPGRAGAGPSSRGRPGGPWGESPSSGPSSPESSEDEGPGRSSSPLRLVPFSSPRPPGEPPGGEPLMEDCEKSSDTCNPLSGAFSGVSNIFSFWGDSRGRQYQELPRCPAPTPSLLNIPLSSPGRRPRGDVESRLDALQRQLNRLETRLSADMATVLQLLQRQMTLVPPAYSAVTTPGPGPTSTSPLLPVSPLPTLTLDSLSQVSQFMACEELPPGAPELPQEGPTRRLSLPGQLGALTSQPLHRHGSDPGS

Point of comparison: `O=S(=O)(Nc1cccc(-n2cnnn2)c1)c1ccc(Cl)nc1`, “hERG current change (%, negative = inhibition) at 1uM” value 12.8%. Against it:
- Cc1ccc(C)c(-c2csc(NC(=O)c3c(C)noc3C)n2)c1 — lower, -2.01%
- CCC(=O)N1CCCc2cc(S(=O)(=O)N3CCCc4ccccc43)ccc21 — lower, 2.75%
- COc1cc(CC(=O)Nc2nc(-c3ccc(F)c(F)c3)cs2)cc(OC)c1OC — lower, 11.9%
- COc1ccc(NC(=O)CC2SC3=NCCN3C2=O)cc1 (centres unmarked) — higher, 13.9%
- COc1cc(OC)nc(Oc2cc(/C=N/O)ccc2OC)n1 — lower, 12.3%
- CC(C)(C)NCC(O)(c1ccc(Cl)cc1)c1ccc(Cl)cc1 — higher, 13%
- O=C(CN1C(=O)NC2(CCCCCC2)C1=O)Nc1ccc(S(=O)(=O)N2CCOCC2)cc1 — lower, 9.34%
- CC(=O)N(CC1CCCO1)c1nnc(-c2cnccn2)s1 (centres unmarked) — higher, 14.6%
- Cc1ccc(NC(=O)C(=O)NNC(=O)c2ccccc2C)cc1Cl — lower, 4.99%
- COC(=O)C1(C)NC(c2ccc(O)cc2)C2C(=O)N(c3ccc(F)cc3)C(=O)C21 (centres unmarked) — lower, 11%
- N/C(=N\O)c1ccc(NC(=O)c2ccc(Br)o2)cc1 — lower, 5.54%
- CN(/N=C/c1cc(Br)cc(Br)c1O)c1cccc(C(F)(F)F)n1 — higher, 16.7%
- CCCCN(CCCC)S(=O)(=O)c1ccc(OC)c2ncccc12 — lower, 12.1%
- Cc1ccc(S(=O)(=O)NNC2=NS(=O)(=O)c3ccccc32)c(C)c1 — lower, 11.8%
- CC(=O)c1ccc(OCC(O)CN2CCOCC2)cc1.Cl (centres unmarked) — lower, 12.3%
- Cc1ccc(C)[n+](CC(=O)c2ccc(-c3ccccc3)cc2)c1.[Cl-] — lower, 6.11%
- Cc1nc(N2CCN(Cc3ccccc3)CC2)nc2c1C(=O)CC(C)C2 (centres unmarked) — higher, 17.4%
- CCOC(=O)Cc1nnc(Nc2ccc(C)cc2C)c2ccccc12 — lower, 5.17%
- CN(C)/C=C1/NC(=S)NC1=O — lower, -0.297%
- COc1ccc(C(=O)NC(=S)NNC(=O)c2ccco2)cc1 — higher, 15.3%
- Cc1c(C)c2ccc(OCC(=O)Nc3ccccn3)cc2oc1=O — higher, 16.2%
- O=C(O)CCOc1ccc2c(c1)OCCO2 — lower, 1.91%
- O=S(=O)(Nc1ncnc2c1oc1ccccc12)c1ccc(Cl)s1 — lower, 11.7%
- Cc1cccc(C)c1OCC(O)Cn1ccnc1C (centres unmarked) — lower, 9.73%
- O=C(CC1Nc2ccccc2NC1=O)NCCc1ccccc1 (centres unmarked) — lower, 2.61%
- COc1ccc(-c2nc(CSCC(=O)NC3CCCc4ccccc43)c(C)o2)cc1 (centres unmarked) — lower, 7.69%
- NC(=NCCc1ccccc1)NS(=O)(=O)c1ccc(F)cc1 — lower, 8.18%
- Cc1cc(C)c(C)c(S(=O)(=O)N2CCC(C(=O)N3CCCC3)CC2)c1C — lower, -3.51%
- Cc1ccc(OCC(=O)Nc2cc(C)on2)c([N+](=O)[O-])n1 — lower, 9.7%
- CN=C(SCc1ccccc1)c1c(O)n(C)c(=O)n(C)c1=O — lower, 7.13%
- COC(C(=O)N1CCC(n2nccc2NC(=O)C2CC2)CC1)c1ccccc1 (centres unmarked) — lower, 11.1%
- COc1ccc(C)cc1NC(=O)C(Sc1nnc(Nc2cc(C)ccc2OC)s1)c1ccccc1 (centres unmarked) — lower, -0.146%
- OCC1(Cc2ccccc2C(F)(F)F)CCN(Cc2ccc3c(c2)CCO3)CC1 — lower, 4.73%
- Cc1ccc(SCCC(=O)Nc2ccccc2C(=O)NC2CCCCC2)cc1 — lower, 10.1%
- CCOc1ccc(NC(=S)c2ccncc2)cc1 — lower, 10.3%
- Cc1c(Cl)c([N+](=O)[O-])nn1CCCC(=O)NC(C)c1ccccc1 (centres unmarked) — lower, 0.0382%
- C/C(=N\NC(=O)CC1N=C(Cc2ccccc2)NNC1=O)c1ccc(Cl)cc1Cl (centres unmarked) — lower, -2.12%
- CC1CN(C(=O)CCC(=O)NCc2ccc(Cl)cc2)c2ccccc2S1 (centres unmarked) — lower, -5.88%
- Cc1ccc(C(CCN)c2ccco2)cc1 (centres unmarked) — lower, 4.59%
- CN(C(=O)Cn1nnc2ccccc2c1=O)C1CCCCC1 — lower, -2.85%
- COc1ccc(NC(=O)N2CCCC2C(=O)Nc2ccc(C)cc2C)cc1 (centres unmarked) — higher, 13.1%
- COc1ccc(S(=O)(=O)n2nc(OC(=O)c3ccccc3Br)cc2N)cc1 — lower, 6.05%
- Cc1cccc(C(=O)N2CCC(=O)N(C(COCc3cccc(Cl)c3)Cc3ccccc3)CC2)c1 (centres unmarked) — lower, 8.09%
